In PubChem BioAssay AID2546 (National Center for Advancing Translational Sciences (NCATS), 2010):
Screen size: about 310,000 compounds; about 11,000 (3.5%) were called active. Inconclusive means that the source gave no clear call. Such entries were picked first, then a sample of the others. Calls come from the whole dose curve; as a rule, active = well fitted inhibition curve with a large enough effect; inconclusive = small, poorly fitted or top-dose-only effect, or effect the other way; inactive = flat fitted curve, though single readings scatter. No potency is given beside an inconclusive call; the fits are too rough.

experiment: VP16 counterscreen qHTS for inhibitors of ROR gamma transcriptional activity; conditions: Drosophila S2 Gal4-VP16 UAS-luciferase, luminescence, 20 h; activity, negative = inhibition: at 53.6 µM (top of the series);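 note: Gal4-VP16 expression switched on by copper sulfate through the metallothionein promoter; nearly all actives have a fitted effect of over 50% in size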
% is set by controls: 0 for no effect and ±100 for the full control effect; potency is the fitted concentration of half-maximal effect; tags give direction and shape of the fitted curve.

Compound | Potency | activity, negative = inhibition
COc1ccc(C(=O)NC(=S)N(C)C2CCCCC2)cc1Br | active: 0.708 µM | –
COCCSc1nnc(NC(=O)CSCc2ccccc2)s1 | inconclusive [inhibitor, single point] | –
COc1ccc(NC(=O)c2nc[nH]c2C(=O)N[C@@H](C)C(=O)OC(C)(C)C)cc1 | inconclusive [inhibitor, single point] | –
O=C(Cn1ccc2cc(S(=O)(=O)N3CCCC3)ccc21)NCCc1ccccc1 | inactive | –
Cc1ccc(S(=O)(=O)Nc2nc3ccccc3nc2NCc2ccco2)cc1 | inconclusive [inhibitor, single point] | –
Cc1[nH]c2ccccc2c1SCc1nnc(SCc2ccc(Cl)cc2)n1C | inactive | –
COc1cc(/C=C/C(=O)c2c(O)cc(C)oc2=O)cc(OC)c1O | inactive | –
Cc1cc(C)n2nc(C(=O)Nc3ccc(S(=O)(=O)N(C)C)cc3)nc2n1 | inactive | –
O=C(Nc1nnc(CC2=CCCCC2)s1)c1cccs1 | inconclusive [inhibitor, single point] | –
Cc1ccc(C)c(-n2cc[nH]c2=S)c1 | inconclusive [inhibitor, single point] | –
COc1cccc(OCc2cc(C(=O)N3CCN(C)C(c4ccccc4)C3)no2)c1 (stereo unspecified) | inactive | –
O=C(NCCCNc1ccc(C(F)(F)F)cc1[N+](=O)[O-])c1ccc(F)cc1 | inconclusive [activator, single point] | –
COc1cc(/C=C(\C#N)c2nc3ccccc3[nH]2)ccc1OC(=O)c1ccco1 | inconclusive [inhibitor, single point] | –
CCCc1nc(SCC(=O)Nc2nnc(CC)s2)c2c(=O)n(C)c(=O)n(C)c2n1 | active: 5.01 µM | –
Fc1ccccc1-n1cc(-c2ccccc2)[nH]c1=S | active: 15.8 µM | –
CCc1ccc2nc(N(CCN(C)C)C(=O)/C=C/c3cccs3)sc2c1 | inconclusive [inhibitor, single point] | –
CCc1nnc(NC(=O)CN2CCN(c3ccccc3F)CC2)s1 | inactive | –
Cc1ccc(CC2CC(=O)N(c3ccc(C)cc3)C2=O)cc1 (stereo unspecified) | inactive | –
CSc1cccc(NC(=O)C2C3C=CC4(O3)C2C(=O)N(CCN2CCOCC2)C4C(=O)NC2CCCCC2)c1 (stereo unspecified) | inactive | –
Cc1cccc(NC(=O)c2cc(NC(=O)c3ccco3)ccc2N2CCCCC2)c1 | inactive | –
Cc1cccc(Cn2c(-c3ccc[nH]c3=O)nc3ccccc32)c1 | inconclusive [inhibitor, single point] | –
O=C(N/N=C/c1ccc(Br)cc1)c1ccc(F)cc1 | inconclusive [inhibitor, single point] | –
COc1ccc(-c2csc(N3N=C(C)C(C)C3=O)n2)cc1 (stereo unspecified) | inconclusive [inhibitor, single point] | –
COc1ccc2cc(/C=C3\SC(=S)NC3=O)c(N3CCOCC3)nc2c1 | inconclusive [inhibitor, single point] | –
CN(Cc1ccccc1)Cc1nc2scc(-c3ccccc3)c2c(=O)[nH]1 | inconclusive [inhibitor, partial curve, poor fit] | –
COc1ccccc1NC(=O)N1CCN(c2cc(-c3ccccc3)nc3ncnn23)CC1 | inactive | –

Compound | Potency | activity, negative = inhibition
CCc1nc(N2CCCCC2C)c2oc3ccccc3c2n1 (stereo unspecified) | inconclusive [inhibitor, single point] | –
COc1ccc(CCNC(=O)C/C(C)=N/NC(=O)c2ccc(N)cc2)cc1OC | inconclusive [activator, single point] | –
Cc1cc(Oc2ccccc2)nc(-c2ccccc2O)n1 | inconclusive [inhibitor, single point] | –
COc1ccc(OC)c(C2C(C(C)=O)=C(O)C(=O)N2CCN2CCOCC2)c1 (stereo unspecified) | inactive | –
Cc1[nH]c2ccc(C(=O)N3CCCC3)cc2c1C | inactive | –
N#CC1=C(SCC(=O)c2ccccc2)NC2=C(C(=O)CCC2)C1c1ccco1 (stereo unspecified) | inconclusive [inhibitor, single point] | –
COc1ccc(/C=C/C(=O)c2ccc3c4c(cccc24)CC3)cc1 | inconclusive [inhibitor, full curve] | –
Cc1ccc(CN(C)C(=O)c2ccccc2Oc2ccccc2)o1 | inconclusive [inhibitor, single point] | –
Cc1ccoc1C(=O)N1CCCCC1C(=O)O (stereo unspecified) | inactive | –
CN1C(=O)c2ccc(N(C)C)cc2C1=O | inactive | –
O=C(NC(=S)Nc1ccc(Br)cc1)C1CCC1 | active: 7.94 µM | –
CCC1(CC)C(=O)NC(=O)NC1=NCCc1ccc(O)cc1 | inconclusive [inhibitor, single point] | –
CC(C)(C)c1ccc(NC(=O)N2CCN(c3ccc([N+](=O)[O-])cn3)CC2)cc1 | inconclusive [inhibitor, single point] | –
NC(=S)N/N=C\c1c(OCc2ccccc2Cl)ccc2ccccc12 | active: 3.16 µM | –
Cc1ccc(NC(=S)N=Nc2c(O)[nH]c3ccccc23)cc1 | active: 1.26 µM | –
O=C(NCC1CC1(Cl)Cl)Nc1ccc(Cl)c(Cl)c1 (stereo unspecified) | inactive | –
N/C(Cc1ccccc1)=N\OC(=O)c1cccc2ccccc12 | active: 8.91 µM | –
COC(=O)C1=C(C)N(Cc2ccccc2)C(=NCC(C)C)N[C@H]1c1cccc(F)c1 | inconclusive [inhibitor, single point] | –
S=C(NCc1ccco1)N/N=C/c1ccc(Cl)cc1 | active: 5.62 µM | –
Cc1cc(C)c(C)c(OCC(=O)O/N=C(\N)c2cccnc2)c1 | inconclusive [inhibitor, single point] | –
O=S(=O)(c1cc(Br)c(Cl)s1)N1CCCC1 | inactive | –
O=C(COCC(=O)NCc1ccccc1)NCc1ccccc1 | inconclusive [inhibitor, full curve] | –
CC(=O)Nc1ccc(S(=O)(=O)NCC(=O)OC(C)c2ccccc2Cl)cc1 (stereo unspecified) | inconclusive [inhibitor, single point] | –
CCCCCCCCN1C(=O)C(O)=C(C(C)=O)C1c1ccccn1 (stereo unspecified) | inconclusive [activator, single point] | –
CCOc1cc(/C=C2\C(=O)N(CCc3ccc(OC)c(OC)c3)C(C)=C2C(=O)OC)ccc1O | inconclusive [inhibitor, single point] | –
CN(C(=O)c1cccs1)c1ccc(OCC(=O)N2CCC(C(N)=O)CC2)cc1 | inconclusive [inhibitor, single point] | –

Compound | Potency | activity, negative = inhibition
Cc1cc(-c2nnc3n2N=C(c2ccc(-c4ccccc4)cc2)CS3)n[nH]1 | inconclusive [inhibitor, full curve] | –
O=C(Nc1ccccc1)OC1CC2CC1C1CCCC21 (stereo unspecified) | inconclusive [inhibitor, partial curve] | –
CC(C)C(=O)Nc1ccc(C(=O)NNC(=O)C(c2ccccc2)c2ccccc2)cc1 | inconclusive [inhibitor, single point] | –
CC1S/C(=N/N=C/c2cccs2)NC1=O (stereo unspecified) | active: 7.08 µM | –
Cc1ccc(C2=NC3(CCCCC3)N=C2SCC(=O)Nc2ccc3c(c2)OCCO3)cc1 | inactive | –
CCOC(=O)c1ccc(NC(=O)c2ccco2)cc1 | inconclusive [activator, full curve] | –
Cc1nc(N2N=C3/C(=C/c4ccc(F)cc4)CCCC3C2c2ccc(F)cc2)sc1C(=O)N(C)C (stereo unspecified) | inconclusive [inhibitor, partial curve] | –
O=C(Nc1ccc(Cl)c(Cl)c1)Nc1cc(C(=O)NC2CC2)ccc1Cl | inconclusive [inhibitor, single point] | –
O=S(=O)(c1ccc(Cl)cc1)c1cnc2ccccc2n1 | inconclusive [inhibitor, single point] | –
COc1cccc(NC(=O)CN(c2cccc(C(F)(F)F)c2)S(C)(=O)=O)c1 | inconclusive [inhibitor, single point] | –
C=CCn1c(SCC(=O)Nc2cc(C)on2)nc2c([nH]c3ccccc32)c1=O | active: 11.2 µM | –
Cc1ccc(Nc2nc(-c3cccnc3)cs2)cc1Cl | inconclusive [inhibitor, single point] | –
CC1(C)CC(=O)C=C(Nc2ccc(C(=O)O)c(O)c2)C1 | inactive | –
COC(=O)C1=CN(C)C=C(C(=O)OC)C1c1ccc(O)c(OC)c1 | inactive | –
COc1ccc2oc(=O)c(C(=O)Nc3ccccc3C)cc2c1 | inconclusive [inhibitor, partial curve] | –
COC(=O)C1=CN(C2CC2)C=C(C(=O)OC)C1c1ccccc1OC | inactive | –
N#CCCn1cc(C(N)=O)c(-c2ccc3ccccc3c2)n1 | inactive | –
COc1ccc(C2C(C(C)=O)=C(O)C(=O)N2c2nccs2)c(OC)c1 (stereo unspecified) | – | inactive: -4.35% [at 10 µM]
Cc1occc1C(=O)NNC(=S)Nc1ccccc1C(F)(F)F | inconclusive [inhibitor, single point] | –
O=C(Nc1cccc(F)c1)/C(=C/c1ccco1)NC(=O)c1ccco1 | inactive | –
COC(=O)c1[nH]c2cc(OC)ccc2c1NC(=O)CCN1CCN(c2cccc(C)c2C)CC1 | inactive | –
C=CCn1c(SCC(N)=O)nc2scc(-c3ccc(C)o3)c2c1=O | inconclusive [inhibitor, single point] | –
O=C(CCc1ccccc1)NC(=S)Nc1cccc(Br)c1 | inconclusive [inhibitor, single point] | –
O=C(CNc1ccc2ccccc2c1)N/N=C/c1cc2ccccc2nc1Cl | inconclusive [inhibitor, single point] | –
